Results taken from PubChem BioAssay AID686971 (National Center for Advancing Translational Sciences (NCATS), 2013).
About 7,500 (2.1%) of roughly 360,000 compounds were called active. The shares of active, inactive and inconclusive entries below differ from those in the screen. Calls follow the shape of the dose curve; as a rule, active = well fitted cell-killing curve with a large enough effect; inconclusive = small, poorly fitted or top-dose-only effect, or effect the other way, or another doubt; inactive = no such curve, though single readings can be large or run the other way. No potency is given beside an inconclusive call; the fits are too rough.

Test: qHTS for induction of synthetic lethality in tumor cells producing 2HG: qHTS for the HT-1080-IDH1KD cell line;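 as to activity, negative = toxicity: 0% = DMSO wells and -100% = cell-free medium wells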
Conditions: HT-1080 IDH1 knockdown viability, ATP luminescence, 48 h; activity, negative = toxicity: at 46.1 µM (top of the series) unless noted
Outline: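 Knockdown cells (IDH1KD HT-1080) received compounds 2 h after plating at 750 cells/well and were kept 48 h at 37 °C in 5% FBS RPMI. A CellTiter-Glo luminescence read gave % activity for curve fitting.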
Potency is read from the fitted curve at half-maximal effect; tags tell the direction and shape of the fitted curve.

SMILES | activity, negative = toxicity | Potency
CCn1c(SCC(=O)c2ccccc2)nnc1-c1cc2cc(Br)ccc2o1 | inactive: -0.136% [at 9.24 µM] | 
CCCCNC(=O)CSc1nc2n[nH]c(C)c2c(=N)n1-c1cccc(Cl)c1C |  | inconclusive [cytotoxic, single point]
Cc1ccccc1C(=O)NC(=S)Nc1sc2c(c1C#N)CCC(C)C2 (configuration not stated) |  | inconclusive [cytotoxic, single point]
Nc1cccc2c1C(=O)N(C(=O)/C=C/c1cccc(Br)c1)C2=O |  | inconclusive [cytotoxic, full curve]
O=C1CC(Sc2nnnn2C2CCCCC2)C(=O)N1c1ccccc1 (configuration not stated) |  | active: 5.01 µM
CCOc1ccc(S(=O)(=O)Nc2cc(NS(=O)(=O)c3ccc(OCC)cc3)cc(C(=O)O)c2)cc1 | inactive: -2.23% | 
Cc1ccc(COc2ccccc2-c2cc(C(=O)N/N=C/c3cccnc3)[nH]n2)cc1 |  | active: 6.51 µM
CS(=O)(=O)N(CC(=O)N1CCOCC1)c1cc(Cl)ccc1Cl | inactive: 7.85% | 
O=C1CCCC2=C1C(c1cccs1)Nc1ccc3ncccc3c12 (configuration not stated) |  | inconclusive [cytotoxic, single point]
COc1cc(OC)cc(-c2c(C#Cc3ccsc3)c3cc(-c4ccc(OC)c(F)c4)ccc3n2C)c1 | inactive: 11.5% | 
COc1cccc(OC)c1OCCNCC1COc2ccccc2O1 (configuration not stated) |  | inconclusive [cytotoxic, partial curve]
C=CC(=O)Nc1ccc(Br)cc1 |  | inconclusive [cytotoxic, partial curve]
O=C(C1CC(c2ccccc2O)=NO1)N1CCc2ccccc2C1 (configuration not stated) |  | inconclusive [cytotoxic, single point]
Oc1ccc2ccccc2c1N=Nc1ccccn1 |  | inconclusive [cytotoxic, full curve]
S=C1NC(c2ccccc2)=NCN1c1ccc(Br)cc1 |  | inconclusive [cytotoxic, single point]
Oc1ccc(-c2csc(-c3c[nH]c4ccccc34)n2)c(O)c1 |  | inconclusive [cytotoxic, single point]
Cc1ccc(Cl)c(OCCN2CCc3ccccc3C2)c1 | inactive: -12.6% | 
CC(C)(C)NC(=O)C(c1ccc(-c2ccccc2)cc1)N(C[C@H]1CC[C@@H]([C@@H]2CC[C@H](CO)O2)O1)C(=O)c1ccc(C(C)(C)C)cc1 (some centres not stated) |  | inconclusive [cytotoxic, single point]
COc1cccc(C(=O)CC(=O)C(=O)Nc2ccc(C)cc2Cl)c1 | inactive: 13.7% | 
O=C(CS(=O)(=O)c1c[nH]c2ccccc12)N1CCc2ccccc21 | inactive: -1.84% | 
c1ccc2c(N3CCCCC3)ncnc2c1 | inactive: -16.9% | 
CCOc1ccc(-c2nc(N)ncc2-c2ccccc2)c(O)c1 |  | inconclusive [cytotoxic, single point]
O=C(NCc1cccnc1)c1ccc(NC(=O)c2cccc([N+](=O)[O-])c2)cc1 |  | active: 3.66 µM
Cc1cnc(C)c(Nc2nc(C(N)Cc3ccc(Cl)cc3)cs2)n1 (configuration not stated) |  | active: 23.1 µM

SMILES | activity, negative = toxicity | Potency
Cc1ccsc1C1NC(=O)c2ccccc2N1 (configuration not stated) |  | inconclusive [cytotoxic, single point]
O=C(ONc1ccc(N=NC(=O)c2ccccc2O)cc1)c1ccccc1 |  | active: 1.84 µM
COc1cccc(/C=N/NC(=O)CNC(=O)C2COc3ccccc3O2)c1O (configuration not stated) |  | inconclusive [cytotoxic, partial curve]
COc1ccc(OC)c2c1sc(=NC(=O)C1CCCCC1)n2C | inactive: 18.6% | 
CCN1CCN(CCCOc2ccc(-c3ccccc3)cc2)CC1 |  | inconclusive [cytotoxic, single point]
COc1ccccc1OCCOc1ccc(/C=N/n2cnnc2)cc1 |  | active: 20.6 µM
CCOc1ccccc1-c1nc(-c2ccc(NC(=O)Cc3ccc(OC)cc3)cc2)no1 |  | inconclusive [cytotoxic, partial curve]
Oc1ccccc1-c1n[nH]c(-c2ccccc2O)n1 |  | inconclusive [cytotoxic, single point]
O=C1C=Cc2cccc3ccc(O)c1c23 |  | inconclusive [cytotoxic, partial curve]
CCOC(=O)[C@]12CCCC=C1N(CCC1=CCCCC1)C(=O)[C@H](CC(=O)NCC13CC4CC(CC(C4)C1)C3)C2 |  | inconclusive [cytotoxic, single point]
COc1ccc(/C=C/C(=O)ONC2=NCCCCC2)cc1OC |  | inconclusive [cytotoxic, single point]
O=C1/C(=C/c2ccc(F)cc2)SC(=S)N1CC(=O)N1CCCCC1c1cccnc1 (configuration not stated) | inconclusive: 0% [cytotoxic] | 
CN(CCCN1CCCCC1)C(=O)c1cc(COc2ccc(F)cc2F)on1 | inactive: -5.46% | 
Cc1ccc(NC2=CC(=O)CC(c3ccccc3)C2)cc1 (configuration not stated) |  | active: 2.91 µM
CCOCC(=O)NC1CCc2cc(OC)c(OC)c(OC)c2-c2ccc(SC)c(=O)cc21 (configuration not stated) |  | inconclusive [cytotoxic, full curve]
CSCC(=O)N1CCCC(CNC(=O)c2ccc(-c3ccccc3)cc2)C1 (configuration not stated) | inactive: 0.062% | 
OCCCNc1nc(-c2ccc(Cl)cc2)nnc1-c1ccc(Br)cc1 |  | inconclusive [cytotoxic, partial curve]
COc1cc(/C=N/NC(=O)CC23CC4CC(CC(C4)C2)C3)cc(Br)c1OCC(=O)N(C)C |  | inconclusive [cytotoxic, single point]
Cc1ccc(C(C)C)c(OCc2nn(CC(=O)c3ccc(OC(F)F)cc3)c3[n+]2CCCCC3)c1 |  | active: 18.4 µM
Cn1c(=O)c(C(=O)Nc2ccccn2)c(O)c2ccccc21 | inactive: -10.6% | 
Cc1cc(C(C)(C)C)oc1C(=O)N(CC(=O)NC1CCCC1)c1c(C)cccc1C |  | inconclusive [cytotoxic, single point]
C/C(=N\NC(=S)NCCc1ccccc1)c1ccc(C#N)cc1 |  | active: 7.08 µM
CCn1c(CCn2c3ccccc3c3ccccc32)n[nH]c1=S |  | inconclusive [cytotoxic, partial curve, poor fit]
